The list shows a part of the results. Further columns of the screen follow, without active or inactive calls. Numbered stars: 1 amine (or outer) side, 2 acyl side, 3 side chain; on linkers, the order of the positions; unused ones are H or OH. Square brackets hold non-standard residues; d marks the D form. Peptide text beside a SMILES is read from it. X5 = CC(C)=CCc1cc(C(O)C(N[*:1])C(=O)[*:2])ccc1O
How the values were obtained:
Test in all cases: Primary Screen for Target Class Profiling of Small Molecule Inhibitors of Methyltransferases
[1] = molecular target: Glycine N-methyltransferase (Homo sapiens) (UniProt Q14749); settings: purified enzyme, MTase-Glo SAH luminescence; measured here: GNMT inhibition; at 40 µM; stronger effect = lower value
Procedure, shortened: (§1)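 Each enzyme was assayed with SAM and its substrate. SAH formation detected by MTase-Glo luminescence; single-point 40 uM screen[…].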

[2] = molecular target: Guanidinoacetate N-methyltransferase (Homo sapiens) (UniProt Q14353); settings: purified enzyme, MTase-Glo SAH luminescence; measured here: GAMT inhibition; at 40 µM; stronger effect = lower value
Procedure, shortened: as §1

[3] = molecular target: Histamine N-methyltransferase (Homo sapiens) (UniProt P50135); settings: purified enzyme, MTase-Glo SAH luminescence; measured here: HNMT inhibition; at 40 µM; stronger effect = lower value
Procedure, shortened: as §1

[4] = molecular target: Nicotinamide N-methyltransferase (Homo sapiens) (UniProt P40261); settings: purified enzyme, MTase-Glo SAH luminescence; measured here: NNMT inhibition; at 40 µM; stronger effect = lower value
Procedure, shortened: as §1

[5] = molecular target: Phenylethanolamine N-methyltransferase (Homo sapiens) (UniProt P11086); settings: purified enzyme, MTase-Glo SAH luminescence; measured here: PNMT inhibition; at 40 µM; stronger effect = lower value
Procedure, shortened: as §1
% is scaled to controls: 0 for no effect and ±100 for the full control effect.

| Structure (SMILES) | activity change, negative = inhibition [1] [%] | activity change, negative = inhibition [2] [%] | activity change, negative = inhibition [3] [%] | activity change, negative = inhibition [4] [%] | activity change, negative = inhibition [5] [%] |
| --- | --- | --- | --- | --- | --- |
| COC[C@@H]1CN(C(=O)Cc2c(C)noc2C)C[C@H]1c1ccccn1 | 2.5 | -0.177 | 1.18 | -3.67 | 11 |
| O=C(NC[C@H]1OC[C@@H](NC2CCC2)[C@@H]1O)N1CCOCC1 | -2.86 | -4.8 | -2.9 | -5.89 | -2.52 |
| Cn1ncc2c(NCCc3nnc(N)s3)nc(-c3ccncc3)nc21 | -27.3 | -5.85 | -9.64 | -18.7 | -9.81 |
| C[C@@H]1O[C@@H](O[C@H]2[C@H](O[C@H]3[C@H](O[C@H]4CC[C@@]5(C)C(CC[C@]6(C)C5CC=C5[C@@H]7CC(C)(C)CC[C@]7(C(=O)O[C@@H]7O[C@H](CO)[C@@H](O[C@@H]8O[C@@H](C)[C@H](O)[C@@H](O)[C@H]8O)[C@H](O)[C@H]7O)CC[C@]56C)C4(C)C)OC[C@H](O)[C@@H]3O)O[C@H](CO)[C@@H](O)[C@@H]2O)[C@H](O)[C@H](O)[C@H]1O (stereo partly drawn) | 1.12 | 12.5 | 9.18 | -0.431 | 8.43 |
| Fc1ccc2nc(CCC#Cc3ccccn3)cn2c1 | -2.52 | -4.17 | 5.71 | -16.6 | -0.484 |
| CC(=O)N[C@@H]1CN(C(=O)CCc2c[nH]c3ccccc23)C[C@H]1CO | -2.4 | -5.43 | -1.17 | -2.33 | -2.5 |
| CC(=O)Nc1ccc(N2C(=O)c3ccc(-c4ccco4)n3CC2(C)C(=O)NCc2ccccc2)cc1 (stereo not drawn) | -10.2 | 0.921 | 10.9 | 16.1 | 5.71 |
| CCCn1c(=O)c2ccc(C(=O)NC(C)C)cc2n2c(=O)n(Cc3cc(C)ccc3C)nc12 | 5.48 | 0 | 5.75 | 4.74 | 7.43 |
| CCCn1c(=O)c2ccc(C(=O)NCC(C)C)cc2n2c(=O)n(Cc3ccc(F)cc3Cl)nc12 | -1.06 | 4.52 | 2.73 | -2.21 | 3.23 |
| C=C(C(=O)O)[C@@H]1CC=C(CCC(C)=O)[C@@H](C)CC1 | -2.12 | -10.8 | 1.12 | -17.8 | -1.12 |
| CC1(C(=O)NCc2ccc(F)cc2)Cn2c(nc3ccccc32)C(=O)N1Cc1ccc(Cl)cc1 (stereo not drawn) | 6.93 | 0.091 | 7.1 | 8.78 | 3.09 |
| Cc1ccc(CN2C(=O)c3ccc(-c4ccco4)n3CC2(C)C(=O)NCc2ccccc2)cc1 (stereo not drawn) | -5.37 | 4.38 | -0.932 | 0.463 | -2.69 |
| CC(C)=CCc1cc(C(O)C2NC(=O)CNC(=O)C(Cc3c[nH]c4ccccc34)NC(=O)C3CCCN3C(=O)CNC(=O)C(C(C)C)NC(=O)CNC2=O)ccc1O (stereo not drawn) (cyclo(G[X5]GVGPW); configuration not given here) | -3.07 | -0.875 | 5.17 | -16.8 | -10.7 |
| CC(C)CNC(=O)c1ccc2c(=O)n(C(C)C)c3nn(CC(=O)NC4CCCC4)c(=O)n3c2c1 | 3.11 | 0 | 6.12 | 0.53 | 2.08 |
| CN1CCNC(=O)C1CC(=O)O (stereo not drawn) | -3.5 | -1.2 | -0.25 | -2.26 | -0.219 |
| CCCn1c(=O)c2cc(Cl)ccc2n2c(SCc3ccc(F)cc3)nnc12 | -13.5 | 4.69 | 2.42 | -9.32 | 0.808 |
| CC1CCC2C(C(=O)O)=CC3CC(C)(C)CC132 (stereo not drawn) | 4.1 | 8.53 | 4.94 | -16.5 | 2.79 |
| COc1cccc(CNC(=O)c2cc3n(n2)CC(C)(C(=O)NCCC(C)C)N(C)C3=O)c1OC (stereo not drawn) | 8.52 | 0 | 10.4 | 0.359 | 7.45 |
| COc1ccc(CN2CCN(C3CCN(c4ccccc4)CC3)CC2CCO)cc1C (stereo not drawn) | -6.34 | -5.16 | -7.32 | -10.3 | -13.7 |

| Structure (SMILES) | activity change, negative = inhibition [1] [%] | activity change, negative = inhibition [2] [%] | activity change, negative = inhibition [3] [%] | activity change, negative = inhibition [4] [%] | activity change, negative = inhibition [5] [%] |
| --- | --- | --- | --- | --- | --- |
| CC[C@H](/C=C/[C@@H](C)[C@H]1CC[C@H]2[C@@H]3CC=C4C[C@@H](O)CC[C@]4(C)[C@H]3CC[C@]12C)C(C)C | 7.58 | 4.08 | 8.7 | -9.24 | 3.39 |
| Cc1onc(-c2cnn(C)c2NCc2ccc(C#N)cc2)c1C(=O)N1CCCC1 | -6.86 | -8.64 | -2.33 | -14.3 | -9.44 |
| CC(C)n1c(=O)c(C(=O)NC2CC3CCC(C2)N3C[C@@H](O)CN(C)S(C)(=O)=O)cc2ccccc21 (stereo partly drawn) | -2.99 | -6.44 | -0.462 | -21.6 | -5.45 |
| C/C=C/C(O)C1OC(=O)CC1Nc1ccc(C(=O)O)cc1 (stereo not drawn) | -0.13 | -2.1 | 11 | -13.7 | -10.8 |
| CCCSCCCN1C(=O)c2cc3occc3n2CC1(C)C(=O)NC1CCC(C)CC1 (stereo not drawn) | -3.6 | 6.81 | 1.01 | -0.565 | -2.03 |
| Cc1ccc(CN2CCCn3nc(C(=O)NCCc4cccs4)cc3C2=O)cc1 | -8.62 | 0 | -2.35 | -5.97 | -1.68 |
| O=S(=O)(c1ccccc1F)N1CCC(CCc2nc(C3CCOCC3)no2)CC1 | -6.04 | -2.83 | -1.59 | -8.38 | -11.6 |
| c1ccc(-c2ncc(CN3CCN(c4ncccn4)CC3)[nH]2)cc1 | -4.49 | -1.05 | 5.32 | -15.6 | 1.5 |
| NS(=O)(=O)Nc1ncnc(OCCOc2ncc(Br)cn2)c1-c1ccc(Br)cc1 | -23.4 | -16.1 | -26.6 | -46.3 | -32.6 |
| CCCS(=O)(=O)N1CCCC(c2[nH]ccc2C(N)=O)C1 (stereo not drawn) | -2.75 | -2.8 | -0.274 | -7.83 | -5.95 |
| O=C(NC[C@H]1CN(c2ccc(N3CCOCC3=O)cc2)C(=O)O1)c1ccc(Cl)s1 | -2.26 | -1.18 | 7.26 | -14.5 | 1.68 |
| Cc1ccc(NS(=O)(=O)c2cc3c(cc2N[C@H](C)CO)NC(=O)CC3)cc1C |  | 1.77 |  | -15.3 | -18.6 |
| CC(C)(O)C1CCC2(C)C3C(O)C4C(C13)C42CO (stereo not drawn) | 6.45 | 7.12 | 10.6 | -6.13 | 5.17 |
| COc1ccc(OC)c(-c2nnc3n(Cc4ccc(C)cc4)c(=O)c4ccccc4n23)c1 | -4.59 | 0 | -2.14 | -5.1 | -7.19 |
| CC(C)Cn1c(=O)c2ccc(C(=O)NC(C)C)cc2n2c(=O)n(CC(=O)NC(C)(C)C)nc12 | 1.52 | 6.21 | 8.5 | -2.7 | 3.63 |
| CNCCN1C(=O)CC[C@H]2CN(C(=O)COc3cccnc3)CC[C@H]21 | -2.88 | -7.05 | -0.554 | -5.88 | -1.18 |
| CC(C)c1nn(-c2c(Cl)cccc2Cl)c2nc(Cc3ccc(OCCO)cc3)[nH]c(=O)c12 | 1.36 | 5.09 | 11.6 | -38.2 | 5.3 |
| CC(=O)Nc1c2n(c3ccccc13)CC(C)(C(=O)NC1CCCC1)N(CCC(C)C)C2=O (stereo not drawn) | 2.88 | 0.044 | 1.31 | 8.54 | 3.54 |
| c1ccc(Nc2cc3c(cn2)NCCN(Cc2ccccn2)C3)cc1 | -18.3 | -7.18 | -16.4 | -8.71 | -34.8 |

| Structure (SMILES) | activity change, negative = inhibition [1] [%] | activity change, negative = inhibition [2] [%] | activity change, negative = inhibition [3] [%] | activity change, negative = inhibition [4] [%] | activity change, negative = inhibition [5] [%] |
| --- | --- | --- | --- | --- | --- |
| CC(C)CCN1C(=O)c2cc(-c3cccs3)nn2CC1(C)C(=O)NC1CCCCC1 (stereo not drawn) | 3.5 | 0 | 8.51 | 14.5 | 5.19 |
| NC(=O)CN1CC2(CCC1=O)CCN(C[C@@H](O)CO)CC2 | 0.183 | -0.922 | 2.23 | 0.052 | -5.12 |
| CCCn1c(=O)c2ccccc2n2c(=O)n(CC(=O)c3cc(C)ccc3C)nc12 | 1.24 | 3.55 | 6.18 | -32.3 | 2.69 |
| C[C@@H]1C[C@H]2[C@@H]3C[C@H](F)C4=CC(=O)C=C[C@]4(C)[C@@]3(F)[C@@H](O)C[C@]2(C)[C@@]1(O)C(=O)CO | 6.55 | 4.4 | 3.66 | -8.28 | 0.432 |
| Cc1ccc(CN2CC[C@H](c3nc4cc(C)ccc4o3)C2)cc1 | -2.24 | -0.908 | -0.753 | 0.145 | -1.94 |
| CCN1C(=O)Cc2cc(C(=O)NCc3c(C)cc(C)cc3C)ccc21 | -2.36 | -8.96 | -9.64 | -19.4 | -11.1 |
| COc1cc(N2CCC(N3CCN(C)CC3)CC2)ccc1Nc1ncc(Cl)c(-c2c[nH]c3ccccc23)n1 | -47.9 | -13.2 | -73.5 | -34.5 | -32.3 |
| CN1C(=O)c2cc(C(=O)N3CCN(c4ccccc4F)CC3)nn2CC1(C)C(=O)NC1CCCC1 (stereo not drawn) | 1.72 | 0 | 4.68 | -1.87 | 2.01 |
| Cc1cc2c(cc1CC(=O)c1sccc1S(=O)(=O)Nc1onc(C)c1Cl)OCO2 | -1.23 | -4.71 | 12.1 | -63.7 | -0.265 |
| CCN(CC)C(=O)c1cc2c(s1)CCC(C(=O)N1CCN(c3ccccn3)CC1)C2 (stereo not drawn) | -10.1 | -8.87 | -5.49 | -16.4 | 4.93 |
| CCCN1C(=O)c2c(C(=O)NCc3ccccc3OCC)ncn2CC1(C)C(=O)NCc1ccc(C)cc1 (stereo not drawn) | 0.268 | 0 | 2.38 | 1.07 | 4.91 |
| CC(CNc1nc2c(-c3ccccc3)nnn2c2ccccc12)c1ccccc1 (stereo not drawn) | 1.5 | 1.33 | -10.4 | 1.9 | -0.98 |
| COc1ccccc1OCCN1C(=O)C2(CCOCC2)CC1c1nnnn1C(C)(C)C (stereo not drawn) | -0.033 | -4.07 | 0.769 | -4.54 | 0.534 |
| COc1cccc(CN2C(=O)c3ccc(-c4ccco4)n3CC2(C)C(=O)NCCC(C)C)c1OC (stereo not drawn) | -1.06 | 0.555 | 8.65 | 4.3 | 2.29 |
| COc1cc(C(O)C(CO)Oc2ccc(CCCO[C@@H]3O[C@@H](C)[C@H](O)[C@@H](O)[C@H]3O)cc2OC)ccc1O (stereo partly drawn) | 8.44 | 5.66 | 10.6 | -6.64 | 9.3 |
| CC(C)n1nc(OC(C)(C)C(=O)Nc2ccccn2)c2cc(CN3CCOCC3)ccc21 | -4.62 | -7.48 | -4.33 | -10.4 | -0.106 |
| Cc1cnc(CCN)n1Cc1ccccc1 | -3.58 | 2.12 | -43.6 | -9.47 | 3.08 |
| CCCn1c(=O)c2ccc(Cl)cc2n2c(=O)n(CC(=O)Nc3ccc(F)cc3)nc12 | 1.37 | 2.35 | 4.68 | 1.83 | 4.39 |
| COc1ccc(C(=O)/C(Cc2cc(OC)c(OC)c(OC)c2)=C(\C(=O)O)c2ccc3c(c2)OCO3)cc1 | -2.81 | 8.57 | 9.51 | -11 | -6.67 |
